Data taken from PubChem BioAssay AID493208 (National Center for Advancing Translational Sciences (NCATS), 2011).
Screen size: about 44,000 compounds; about 340 (0.77%) were called active. Inconclusive results (about 5%) are left out. The call rests on the fitted dose curve; in most records, active means well fitted inhibition curve with a large enough effect; inconclusive means small, poorly fitted or top-dose-only effect; inactive means flat fitted curve, though single readings scatter. The list shows a part of the results.

experiment: Acumen qHTS Assay for Inhibitors of the mTORC1 Signaling Pathway in MEF (Tsc2-/-, p53-/-) Cells: Sytravon; settings: phospho-rpS6 immunofluorescence/PI, 24 h; series mostly up to 38.3 µM; activity change, negative = inhibition: at the top concentration;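 further: plate controls were DMSO for no effect and rapamycin for full effect; nearly all actives have a fitted effect of over 50% in size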
In short: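 Plate MEFs (Tsc2-/-, p53-/-, empty vector) in DMEM/10% FBS; after 24 h add compound, incubate 24 h at 37 degree Celsius; fix in PFA/TX-100, block, stain phospho-rpS6 and 10 uM PI; scan at 488 nm; report % positive cells.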

| Compound | activity change, negative = inhibition |
| --- | --- |
| O=C(NCCn1cc(SCc2ccc(Br)cc2)c2ccccc21)c1cccs1 | inactive: 0.157% |
| CCC1Oc2ccccc2N(CC(=O)NCc2cc(OC)ccc2OC)C1=O (stereo not drawn) | inactive: 6% |
| CCCC(=O)N1CCc2cc(OC)c(OC)cc2C1COc1ccc(C(=O)OC)cc1 (stereo not drawn) | inactive: -8.37% |
| CCN(CC)C(=O)Cn1c(=O)n(CC2CCC(C(=O)NC)CC2)c(=O)c2sccc21 (stereo not drawn) | inactive: -2.49% |
| O=C(CSc1nc(-c2ccccc2F)nc2cc(=O)[nH]n12)Nc1cccc(C(F)(F)F)c1 | inactive: -3.94% |
| CCOc1ccccc1-c1nc(Cn2c(=O)cc(C)c3c(C)nn(-c4ccccc4)c32)c(C)o1 | inactive: -2.89% |
| Cc1cc(C)cc(OCCCn2c(-c3ccc(Cl)cc3)nc3ccccc3c2=O)c1 | inactive: 9.86% |
| COC(=O)c1sc(-c2ccccc2)cc1NC(=O)Nc1ccc(F)cc1 | inactive: -1.49% |
| COc1ccc(C(CC(=O)NCc2ccc(Cl)cc2)N2Cc3ccccc3C2=O)cc1OC (stereo not drawn) | inactive: -5.28% |
| COc1ccc(-c2cn3c(n2)sc2cc(C(=O)Nc4ccc(C)c(Cl)c4)ccc23)cc1 | inactive: -1.74% |
| CCOc1ccc(-c2nnc(SCC(=O)Nc3ccc(C)cc3C)o2)cc1 | inactive: -6.32% |
| COC(=O)c1ccc(NC(=O)n2ncc3c(C)cccc32)cc1 | inactive: -15.7% |
| CCOC(=O)c1[nH]c2c(c1Cc1ccccc1C)C(=O)CC(c1ccccc1)C2 (stereo not drawn) | inactive: -0.529% |
| CCc1ccc(NC(=O)c2cnn(-c3c(C)cccc3C)c2C2CCN(C(=O)OC(C)(C)C)CC2)cc1 | inactive: -9.71% |
| Cc1c(C(=O)N2CCCCCC2)c(S(=O)(=O)Nc2cccc(C#N)c2)c(C)n1C | inactive: -0.934% |
| Cc1cc(=O)[nH]c2nnc(SCc3ccccc3F)n12 | inactive: 1.98% |
| CC1(C)N=C(SCc2ccc(Cl)cc2)c2ccccc2N1 | inactive: -11.1% |
| O=C(NCCc1ccccc1)C(=O)NCC(c1cccs1)S(=O)(=O)c1cccs1 (stereo not drawn) | inactive: -10.8% |
| Cc1ccc(S(=O)(=O)N2CCN(Cc3cc(=O)n4nc(-c5ccccc5Cl)sc4n3)CC2)cc1 | inactive: 6.65% |
| Cn1c(=O)cc(SCC(=O)NCc2ccc(F)cc2)c2cc(Cl)ccc21 | inactive: 0.664% |
| CCOC(=O)c1c(C)[nH]c(C)c1S(=O)(=O)N1CCC(C(=O)Nc2ccccc2CC)CC1 | inactive: -5.76% |
| CCc1ccc(-n2nc(CO)c(C(=O)NCc3ccccc3Cl)n2)cc1 | inactive: 2.23% |
| Cn1c(=O)c(=O)n(C)c2cc(NS(=O)(=O)c3ccc(Br)cc3)c(Cl)cc21 | inactive: 4.65% |
| COc1ccc(NC(=O)N2CCCn3nc(C)cc32)cc1OC | inactive: -3.24% |

| Compound | activity change, negative = inhibition |
| --- | --- |
| CCCCNC(=O)CSc1nc2cc3c(cc2c(=O)n1Cc1ccc(C(=O)NCCc2ccc(OC)c(OC)c2)cc1)OCO3 | inactive: 0.724% |
| CCn1c(C(=O)NCc2ccccc2Cl)cc2sc(Cl)cc21 | inactive: -7.68% |
| CC(Oc1ccccc1)C(=O)Nc1ccc(C(=O)OCc2cc(=O)n3nc(C4CC4)sc3n2)cc1 (stereo not drawn) | inactive: 0.77% |
| O=C(CCC(=O)N1Cc2ccccc2Oc2ncccc21)NCc1cccc(Cl)c1 | inactive: 0.931% |
| Cc1cc2[nH]c(=O)c(=O)[nH]c2cc1S(=O)(=O)N1CCN(c2ccccc2)CC1 | inactive: 0.531% |
| COc1ccc(Cc2nc3ccccc3n2Cc2ccccc2C)cc1 | inactive: -7.89% |
| O=C(NCc1cccc(Cl)c1)c1ccc(NC(=O)N2CCSc3ccccc32)cc1 | inactive: -1.32% |
| COc1ccc(-c2cc3ccc(O)c(CN4CCCC(C)C4)c3oc2=O)cc1OC (stereo not drawn) | inactive: -3.65% |
| Cc1ccc(Cc2c(C)nc3nc(SCC(=O)NCCC(C)C)nn3c2C)cc1 | inactive: 4.06% |
| COc1ccc(NC(=O)Cn2c(=O)n(-c3ccc(C)cc3)c(=O)c3c2c2cc(C)ccc2n3C)cc1 | inactive: -8.25% |
| Cc1nn(C)c(C)c1S(=O)(=O)N(CC(=O)Nc1ccc(F)cc1F)c1ccc(C(C)C)cc1 | inactive: -1.7% |
| CC1CCN(c2nc3ccc(C(=O)NC(C)C)cc3s2)CC1 | inactive: 1.32% |
| Cc1ccc(CN2C(=O)SC(Nc3ccc(Cl)cc3)C2=O)cc1 (stereo not drawn) | inactive: 1.15% |
| O=C(Nc1onc2c1CCCC2)c1ccccc1 | inactive: 1.08% |
| O=C(CN1C(=O)CCn2nc(-c3ccccc3)cc21)NCc1ccccc1 | inactive: -5.36% |
| COc1cccc(CNC(=O)C(=O)NCC(c2ccco2)S(=O)(=O)c2ccccc2)c1 (stereo not drawn) | inactive: -0.379% |
| COc1ccccc1CNC(=O)c1cnc2sc(N3CCCCC3)nn2c1=O | inactive: -2.89% |
| COc1cccc(C2C(C(=O)Nc3ccccc3OC)=C(C)Nc3nc(-c4ccco4)nn32)c1 (stereo not drawn) | inactive: -12.6% |
| COc1ccc(-n2nc(C(=O)NCCc3ccc(OC)c(OC)c3)c3c4ccccc4n(C)c3c2=O)cc1 | inactive: -11.8% |
| CCC(Sc1nnc2c3ccccc3n(CC)c2n1)C(=O)Nc1ccc(NC(C)=O)cc1 (stereo not drawn) | inactive: 4.05% |
| Cc1ccccc1-c1nc(CS(=O)(=O)CC(=O)NCCCc2ccccc2)c(C)o1 | inactive: -6.31% |
| CCCOc1cccc(C2c3c(oc4ccc(F)cc4c3=O)C(=O)N2CCc2ccc(OC)cc2)c1 (stereo not drawn) | inactive: 5.23% |
| COc1cccc(CNC(=O)c2sc3ncccc3c2-n2c(C)ccc2C)c1OC | inactive: -3.27% |
| COc1ccc(-c2noc(CSc3nc4ccc(C)cc4[nH]3)n2)cc1 | inactive: 2.06% |
